Test results reported in PubChem BioAssay (NCATS).
The shares of active, inactive and inconclusive entries below differ from those in the screen. For part of these data: No potency is given beside an inconclusive call; the fits are too rough. Activity calls are given as the source filed them. Unless noted, calls follow the shape of the dose curve; as a rule, active = well fitted curve in the direction sought with a large enough effect; inconclusive = small, poorly fitted or top-dose-only effect, or another doubt; inactive = no such curve, though single readings can be large; an effect the other way counts as inactive or inconclusive.

How the values were obtained:
[1] = target: Retinoic acid receptor RXR-alpha (Homo sapiens) (UniProt P19793); assay: qHTS assay for small molecule agonists of retinoid X receptor alpha signaling (AID 588544; calls by dose curve); conditions: HEK293T RXRa-UAS-bla, beta-lactamase reporter, 18 h; activation: at 76.7 µM (top of the series)
Sequence of UniProt P19793 (P19793 whole entry, looked up): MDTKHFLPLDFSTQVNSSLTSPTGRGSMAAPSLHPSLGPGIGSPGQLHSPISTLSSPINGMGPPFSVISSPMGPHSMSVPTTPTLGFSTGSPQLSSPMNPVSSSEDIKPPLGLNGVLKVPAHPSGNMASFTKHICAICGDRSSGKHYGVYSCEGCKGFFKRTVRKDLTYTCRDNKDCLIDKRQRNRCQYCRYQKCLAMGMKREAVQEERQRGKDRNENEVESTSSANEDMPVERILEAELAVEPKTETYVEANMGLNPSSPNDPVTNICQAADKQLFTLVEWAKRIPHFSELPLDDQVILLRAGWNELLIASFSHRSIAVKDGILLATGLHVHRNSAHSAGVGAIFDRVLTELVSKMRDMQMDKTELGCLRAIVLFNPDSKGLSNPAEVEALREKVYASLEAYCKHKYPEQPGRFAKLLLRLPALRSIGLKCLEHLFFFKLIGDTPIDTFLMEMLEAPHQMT

[2] = qHTS assay for small molecule agonists of the antioxidant response element (ARE) signaling pathway (AID 651741; active = well fitted activation curve with a large enough effect in the signal ratio; inconclusive = small, poorly fitted or top-dose-only effect, or effect the other way, or a change in a side signal; the % refers to the signal ratio); conditions: HepG2 ARE-bla reporter, beta-lactamase FRET ratio, 16 h; activation: at 96 µM (top of the series)
How it was run: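 Reporter: beta-lactamase under ARE, stably in HepG2. Exposure: 16 h, 37 C, compounds delivered in DMSO by pin tool after 5 h cell preincubation. Readout: FRET substrate fluorescence after 2 h at RT.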

CP335 = assay: qHTS profiling for inhibitors of Plasmodium falciparum proliferation (AID 504749); also: nearly all actives have a fitted effect of over 60% in size; conditions: P. falciparum in erythrocytes, SYBR Green DNA, 72 h; series mostly up to 28.7 µM
How it was run: (§1)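 Quantitative HTS: compounds pinned into medium, infected erythrocytes added (0.3% parasitemia, 2.5% hematocrit), 72 h culture at 37 C under 5% CO2. Saponin/Triton lysis with SYBR Green I, overnight RT, then fluorescence read.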

W2 = assay: as above; conditions: P. falciparum in erythrocytes, SYBR Green DNA, 72 h; activity, negative = inhibition: at 28.7 µM (top of the series)
How it was run: as §1

[3] = target: Metallo-beta-lactamase type 2 (Klebsiella pneumoniae) (UniProt C7C422); assay: qHTS to identify inhibitors of the New Delhi Metallo-beta-lactamase (NDM): assay validation screen against the NCATS LOPAC Collection (AID 1794843); also: potency is read from the fitted curve at half-maximal effect
Sequence of UniProt C7C422 (C7C422 whole entry, looked up): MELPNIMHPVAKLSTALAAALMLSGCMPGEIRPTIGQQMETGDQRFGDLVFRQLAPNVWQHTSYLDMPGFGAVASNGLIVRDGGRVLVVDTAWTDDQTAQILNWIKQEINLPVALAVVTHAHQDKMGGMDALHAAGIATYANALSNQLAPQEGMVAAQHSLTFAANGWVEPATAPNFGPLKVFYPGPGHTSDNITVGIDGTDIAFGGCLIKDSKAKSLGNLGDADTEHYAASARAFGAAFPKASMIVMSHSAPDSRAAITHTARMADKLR
How it was run: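 Nitrocefin hydrolysis (50 uM substrate stock) by NDM-1, 2 nM final, was followed by 485 nm absorbance after compound preincubation; buffer was 50 mM HEPES pH 7.0, 1 uM ZnSO4, 0.01% Tween20.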

[4] = target: Ubiquitin carboxyl-terminal hydrolase 2 (Homo sapiens) (UniProt O75604); assay: qHTS Validation Assay for Inhibitors of Ubiquitin-specific Protease USP2a Using CHOP2 as the Reporter (AID 463106); also: potency is read from the fitted curve at half-maximal effect
How it was run: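 Inhibition is expressed relative to NEM as the full-inhibition control, with concentration-response curves classed by fit quality, magnitude and activity. Enzyme (USP2 core, 10nM) meets 25nM Ub-CHOP2 after compound preincubation; readings are taken at 60min.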

[5] = target: Rap guanine nucleotide exchange factor 3 (Homo sapiens) (UniProt O95398); assay: Confirmatory qHTS for antagonist of cAMP-regulated guanine nucleotide exchange factor 3 (EPAC1) (AID 1645880); also: potency is read from the fitted curve at half-maximal effect; nearly all actives have a fitted effect of over 55% in size
Sequence of UniProt O95398 (O95398 whole entry, looked up): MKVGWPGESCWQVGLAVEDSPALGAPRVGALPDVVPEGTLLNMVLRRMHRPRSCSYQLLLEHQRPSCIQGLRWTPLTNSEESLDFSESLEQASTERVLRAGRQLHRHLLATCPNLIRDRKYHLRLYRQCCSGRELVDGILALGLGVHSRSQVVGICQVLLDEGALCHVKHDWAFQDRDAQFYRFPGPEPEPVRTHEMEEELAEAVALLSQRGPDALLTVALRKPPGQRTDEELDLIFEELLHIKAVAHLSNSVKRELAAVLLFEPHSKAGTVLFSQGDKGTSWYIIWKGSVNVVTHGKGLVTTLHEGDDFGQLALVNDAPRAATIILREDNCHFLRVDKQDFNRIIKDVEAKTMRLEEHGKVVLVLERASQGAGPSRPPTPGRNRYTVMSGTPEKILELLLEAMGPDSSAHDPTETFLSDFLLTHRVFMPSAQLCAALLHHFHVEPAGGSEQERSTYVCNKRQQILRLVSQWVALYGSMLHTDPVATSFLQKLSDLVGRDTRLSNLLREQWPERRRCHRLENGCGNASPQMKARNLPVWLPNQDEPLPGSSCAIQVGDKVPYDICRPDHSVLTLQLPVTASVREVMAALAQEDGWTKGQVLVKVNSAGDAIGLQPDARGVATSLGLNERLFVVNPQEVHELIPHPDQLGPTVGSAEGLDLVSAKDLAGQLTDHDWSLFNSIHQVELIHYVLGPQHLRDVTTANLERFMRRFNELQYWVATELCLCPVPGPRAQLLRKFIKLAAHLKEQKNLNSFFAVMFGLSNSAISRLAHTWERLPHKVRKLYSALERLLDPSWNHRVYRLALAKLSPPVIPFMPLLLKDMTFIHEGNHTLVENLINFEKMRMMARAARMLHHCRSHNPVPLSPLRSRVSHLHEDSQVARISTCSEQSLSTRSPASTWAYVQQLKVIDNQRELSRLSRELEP
How it was run: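 Released BODIPY-GDP fluoresces less than Rap1-bound BODIPY-GDP; the signal is followed at 480/540 nm at 5-min intervals over 30 min, after 5 min at room temperature. Reactions contain 100 nM EPAC1, 250 nM RAP1B-BODIPY-GDP and 50 uM GDP; results are normalized to ATA and DMSO.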

[6] = target: N-terminal Xaa-Pro-Lys N-methyltransferase 1 (Homo sapiens) (UniProt Q9BV86); assay: Confirmatory qHTS for Inhibitors of N-terminal methyltransferase 1 (NTMT1): MTaseGlo Assay (AID 1645874); also: potency is read from the fitted curve at half-maximal effect; nearly all actives have a fitted effect of over 65% in size
Sequence of UniProt Q9BV86 (Q9BV86 whole entry, looked up): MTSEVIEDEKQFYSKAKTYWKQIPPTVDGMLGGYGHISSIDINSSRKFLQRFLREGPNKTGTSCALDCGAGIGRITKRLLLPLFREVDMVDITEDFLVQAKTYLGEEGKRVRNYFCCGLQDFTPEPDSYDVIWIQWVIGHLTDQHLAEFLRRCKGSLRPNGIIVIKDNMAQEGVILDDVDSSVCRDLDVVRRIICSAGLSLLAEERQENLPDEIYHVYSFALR
How it was run: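 Room-temperature NTMT1 reaction, 30 min, with 100 uM SAM and 1 uM SPKRIA substrate; enzyme 125 nM. Read-out: MTase-Glo luminescence, normalized to no-enzyme and DMSO controls.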

[7] = target: Cytochrome P450 3A4 (Homo sapiens) (UniProt P08684); assay: qHTS Assay for Inhibitors and Substrates of Cytochrome P450 3A4 (AID 884); conditions: recombinant CYP3A4, Luciferin-PPXE luminescence; activity change, negative = inhibition: at 57.1 µM (top of the series); also: nearly all actives have a fitted effect of over 50% in size
Sequence of UniProt P08684 (P08684 whole entry, looked up): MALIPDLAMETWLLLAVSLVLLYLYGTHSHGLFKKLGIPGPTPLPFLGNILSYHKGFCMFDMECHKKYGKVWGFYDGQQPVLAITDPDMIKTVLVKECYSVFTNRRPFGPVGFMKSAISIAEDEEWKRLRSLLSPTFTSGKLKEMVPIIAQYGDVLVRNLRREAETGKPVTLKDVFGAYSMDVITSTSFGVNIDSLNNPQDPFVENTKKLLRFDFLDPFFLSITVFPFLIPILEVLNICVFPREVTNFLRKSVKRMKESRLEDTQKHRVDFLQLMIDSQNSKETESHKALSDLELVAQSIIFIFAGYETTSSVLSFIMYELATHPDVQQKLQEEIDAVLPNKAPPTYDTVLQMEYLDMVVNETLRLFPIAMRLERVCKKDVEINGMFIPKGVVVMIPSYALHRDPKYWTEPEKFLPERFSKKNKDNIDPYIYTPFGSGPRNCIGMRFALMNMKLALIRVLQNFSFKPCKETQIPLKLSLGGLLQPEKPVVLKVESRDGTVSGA
How it was run: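 Luminescent readout of luciferin produced by CYP3A4 (20 nM) dealkylation of Luciferin-PPXE, 25 uM (its KM). NADPH-driven reaction ran 60 min at RT after 10 min compound preincubation; data scaled to 57 uM ketoconazole as 100% inhibition.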

[8] = target: Pyruvate kinase (Leishmania mexicana) (UniProt Q27686); assay: qHTS Validation Assay for Inhibitors of Leishmania Mexicana Pyruvate Kinase (AID 945); also: potency is read from the fitted curve at half-maximal effect
Sequence of UniProt Q27686 (Q27686 whole entry, looked up): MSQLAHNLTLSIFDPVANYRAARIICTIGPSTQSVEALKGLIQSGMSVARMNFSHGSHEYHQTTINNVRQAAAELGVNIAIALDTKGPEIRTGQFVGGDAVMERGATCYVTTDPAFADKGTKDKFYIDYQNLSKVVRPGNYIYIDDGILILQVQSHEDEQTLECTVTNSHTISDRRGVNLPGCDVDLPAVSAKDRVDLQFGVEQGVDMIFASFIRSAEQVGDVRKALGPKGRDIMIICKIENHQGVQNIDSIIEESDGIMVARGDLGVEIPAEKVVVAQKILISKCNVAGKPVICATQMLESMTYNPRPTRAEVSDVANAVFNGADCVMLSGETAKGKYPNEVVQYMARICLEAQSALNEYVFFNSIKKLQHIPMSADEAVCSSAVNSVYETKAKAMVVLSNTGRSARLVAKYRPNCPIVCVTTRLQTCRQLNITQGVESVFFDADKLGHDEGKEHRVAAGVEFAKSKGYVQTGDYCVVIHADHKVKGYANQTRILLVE
How it was run: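 Luminescent ATP detection (PKLight) after a 1 h room-temperature reaction of 0.2 nM LmPYK E451W mutant with 0.5 mM PEP and 0.1 mM ADP at pH 7.2. Activity is normalized to DMSO-only control wells.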

[9] = target: Cytochrome P450 2D6 (Homo sapiens) (UniProt P10635); assay: qHTS Assay for Inhibitors and Substrates of Cytochrome P450 2D6 (AID 891);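 also: luciferin methyl ether substrate demethylated by CYP2D6 with NADPH regeneration; potency is read from the fitted curve at half-maximal effect; nearly all actives have a fitted effect of over 60% in size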
Sequence of UniProt P10635 (P10635 whole entry, looked up): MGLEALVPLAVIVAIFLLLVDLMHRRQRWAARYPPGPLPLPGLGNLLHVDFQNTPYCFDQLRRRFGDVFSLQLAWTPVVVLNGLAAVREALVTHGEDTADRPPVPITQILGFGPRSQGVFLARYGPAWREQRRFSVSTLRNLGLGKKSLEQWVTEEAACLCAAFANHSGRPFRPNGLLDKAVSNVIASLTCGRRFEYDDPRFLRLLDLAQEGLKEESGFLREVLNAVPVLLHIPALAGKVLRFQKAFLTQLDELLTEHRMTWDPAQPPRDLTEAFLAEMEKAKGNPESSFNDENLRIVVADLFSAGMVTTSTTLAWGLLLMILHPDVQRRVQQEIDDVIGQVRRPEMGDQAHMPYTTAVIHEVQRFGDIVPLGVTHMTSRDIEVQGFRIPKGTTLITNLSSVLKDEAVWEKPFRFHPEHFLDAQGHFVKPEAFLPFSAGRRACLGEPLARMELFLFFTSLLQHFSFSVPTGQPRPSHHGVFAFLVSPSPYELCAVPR
How it was run: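 Luminescent read-out of luciferin formed by 5 nM human CYP2D6 demethylating 30 uM Luciferin-ME EGE (Km level) over 60 min at room temperature after NADPH regeneration addition. Data normalized to full inhibition by 1.43 uM quinidine.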

[10] = target: Cytochrome P450 2C19 (Homo sapiens) (UniProt P33261); assay: qHTS Assay for Inhibitors and Substrates of Cytochrome P450 2C19 (AID 899); conditions: recombinant CYP2C19, luciferin-H EGE luminescence; activity, negative = inhibition: at 57.1 µM (top of the series); also: potency is read from the fitted curve at half-maximal effect; nearly all actives have a fitted effect of over 60% in size
Sequence of UniProt P33261 (P33261 whole entry, looked up): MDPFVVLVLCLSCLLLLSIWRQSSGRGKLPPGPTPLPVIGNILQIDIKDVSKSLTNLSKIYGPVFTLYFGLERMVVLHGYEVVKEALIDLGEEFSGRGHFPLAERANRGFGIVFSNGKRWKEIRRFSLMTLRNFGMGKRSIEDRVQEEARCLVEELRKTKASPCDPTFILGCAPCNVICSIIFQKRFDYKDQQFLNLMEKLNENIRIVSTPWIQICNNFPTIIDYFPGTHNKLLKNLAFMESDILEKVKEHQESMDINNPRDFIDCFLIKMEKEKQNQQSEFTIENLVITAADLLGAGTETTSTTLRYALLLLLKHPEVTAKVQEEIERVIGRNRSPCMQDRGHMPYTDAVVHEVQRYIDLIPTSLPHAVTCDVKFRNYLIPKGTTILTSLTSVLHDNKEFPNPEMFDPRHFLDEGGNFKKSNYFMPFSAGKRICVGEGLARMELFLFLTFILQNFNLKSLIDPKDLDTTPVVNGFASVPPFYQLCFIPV
How it was run: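 Human CYP2C19 (5nM) with Luciferin-H EGE at 10uM (its KM) in 50mM KPO4 was preincubated with compound for 10 min at 37C. NADPH regeneration started a 60 min 37C reaction. Luciferin was read by luminescence, normalized to 57uM ketoconazole.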

[11] = HTS Assay for Allosteric Antagonists of the Human D2 Dopamine Receptor: Hit Validation in HTRF (AID 624455); conditions: Cells stably expressing D1 dopamine receptor, inhibition mode;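 also: stable D1 dopamine receptor cell line scored for blocking the D1 response; potency is read from the fitted curve at half-maximal effect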
How it was run: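 Inhibition of the D1-mediated response was measured by HTRF. Cells used were a line stably expressing the D1 dopamine receptor.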

[12] = target: Hexokinase-4 (Homo sapiens) + Glucokinase regulatory protein (Homo sapiens) (UniProt P35557+Q14397); assay: qHTS assay for inhibitors of recombinant human GCK-GKRP interaction: HTRF assay (AID 743207); conditions: recombinant GCK-GKRP HTRF binding, 60 min; Potency: with sorbitol-6-phosphate unless noted; activity change, negative = inhibition: at 57.5 µM (top of the series), with sorbitol-6-phosphate unless noted
Sequence of UniProt P35557 (P35557 whole entry, looked up): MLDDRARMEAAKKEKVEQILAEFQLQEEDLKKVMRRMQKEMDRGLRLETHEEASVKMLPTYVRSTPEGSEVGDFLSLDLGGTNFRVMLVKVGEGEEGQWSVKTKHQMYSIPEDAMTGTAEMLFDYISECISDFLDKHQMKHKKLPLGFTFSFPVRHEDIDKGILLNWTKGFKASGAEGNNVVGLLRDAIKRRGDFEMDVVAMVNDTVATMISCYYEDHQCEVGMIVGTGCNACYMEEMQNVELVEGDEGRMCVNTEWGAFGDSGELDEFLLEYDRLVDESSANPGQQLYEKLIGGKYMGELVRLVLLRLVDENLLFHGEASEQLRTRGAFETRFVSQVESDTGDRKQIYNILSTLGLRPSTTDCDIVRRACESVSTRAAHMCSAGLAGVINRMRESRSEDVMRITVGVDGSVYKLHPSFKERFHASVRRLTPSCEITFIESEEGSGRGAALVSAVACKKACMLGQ
Sequence of UniProt P35557 (Q14397 whole entry, looked up): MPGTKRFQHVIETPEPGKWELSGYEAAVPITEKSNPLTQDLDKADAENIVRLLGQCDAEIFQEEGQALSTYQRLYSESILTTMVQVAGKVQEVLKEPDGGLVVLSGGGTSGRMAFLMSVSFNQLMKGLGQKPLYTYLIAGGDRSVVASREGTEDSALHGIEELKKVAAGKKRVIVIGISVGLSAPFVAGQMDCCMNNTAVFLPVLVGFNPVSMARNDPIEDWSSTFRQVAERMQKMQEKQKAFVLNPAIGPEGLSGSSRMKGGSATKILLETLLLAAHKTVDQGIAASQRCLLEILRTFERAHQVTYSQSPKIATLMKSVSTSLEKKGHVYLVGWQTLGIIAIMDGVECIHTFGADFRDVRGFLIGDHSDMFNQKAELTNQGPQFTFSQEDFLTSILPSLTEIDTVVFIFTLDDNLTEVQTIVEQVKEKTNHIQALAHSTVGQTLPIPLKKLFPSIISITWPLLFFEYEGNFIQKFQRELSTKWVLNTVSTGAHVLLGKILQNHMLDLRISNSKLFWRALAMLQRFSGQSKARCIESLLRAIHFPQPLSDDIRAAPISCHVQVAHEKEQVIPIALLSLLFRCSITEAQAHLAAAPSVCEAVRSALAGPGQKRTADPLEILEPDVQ
How it was run: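 GST-GCK and FLAG-GKRP (5 nM each) were combined with 2 uM S6P in pH 7.1 Hepes/MgCl2/KCl/DTT buffer, then compound and anti-FLAG XL665/anti-GST K antibodies were added. After 60 min at room temperature, HTRF 665/615 nm emission was read.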

[13] = Counterscreen for APE1 Inhibitors: Fluorescent Dye Displacement Validation Assay (AID 1707); also: potency is read from the fitted curve at half-maximal effect
How it was run: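 Loss of Thiazole Orange fluorescence marks promiscuous DNA binders. The dye (250 nM) is mixed with 50 nM abasic-site dsDNA in pH7.5 Tris buffer containing MgCl2, then compounds are added and emission is read once.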
Tags tell the direction and shape of the fitted curve or compound fluorescence and quenching.

With Cc1ccc(S(=O)(=O)NC(=O)NN2CCCCCC2)cc1 the Potency [1] was “inactive”, the Potency [2] was “inactive” and the Potency (CP335) was “inactive”. The Potency (W2) was “inactive”.
With Cn1ncc(S(=O)(=O)Cc2ccccc2)c(Br)c1=O the Potency [3] was inconclusive [inhibitor, single point].
With CC(C)C[C@H](NC(=O)C1OC1C(=O)O)C(=O)NCCCCN=C(N)N (stereo partly drawn) the Potency [4] was inconclusive [falling, partial curve].
For C#CCN1C(C)=C(C(=O)OC)C(c2cccc([N+](=O)[O-])c2)C(C(=O)OCC)=C1C (stereo not drawn), the Potency [5] was inconclusive [inhibitor, partial curve, poor fit].
In the case of COc1ccccc1CNCCCCCCNCCCCCCCCNCCCCCCNCc1ccccc1OC, the Potency [6] is reported as inconclusive [inhibitor, partial curve].
In the case of CN(C)CCC(c1ccc(Br)cc1)c1ccccn1 (stereo not drawn), the Potency [7] is reported as “inactive”.
With Cc1cc(NC(=O)Nc2ccc3c(ccn3C)c2)sn1 the Potency [8] was inconclusive [inhibitor, partial curve].
With CC(=O)NNC(=O)N1Cc2ccccc2Oc2ccc(Cl)cc21 the Potency [9] was active: 6.31 µM, the Potency [10] was inconclusive [inhibitor, full curve] and the Potency [11] was inconclusive [inhibitor, single point].
For CO/S(=N\S(=O)(=O)c1ccc(Cl)cc1)c1ccc([N+](=O)[O-])cc1 (stereo not drawn), the Potency [12] was “inactive”.
For O=C(/C=C/c1ccc(O)c(O)c1)OCCc1ccccc1, the Potency [13] was inconclusive [inhibitor, single point] and the Potency [6] was inconclusive [inhibitor, partial curve].
For N#C/C(=C\c1ccc(O)c(O)c1)C(=O)NCCCc1ccccc1, the Potency [13] was inconclusive [inhibitor, partial curve] and the Potency [5] was active: 15.7 µM.
